Data: PubChem BioAssay AID1457 (National Center for Advancing Translational Sciences (NCATS), 2008)
Hit rate of the full screen: of about 210,000 compounds, about 730 (0.35%) were called active. The shares of active, inactive and inconclusive entries below differ from those in the screen. The call rests on the fitted dose curve; in most records, active means well fitted inhibition curve with a large enough effect; inconclusive means small, poorly fitted or top-dose-only effect; inactive means no such curve, though single readings can be large or run the other way. Where the call is inconclusive, the potency comes from a doubtful curve fit.

experiment: qHTS Assay for Identifying the Cell-Membrane Permeable IMPase Inhibitors: Potentiation with Lithium; settings: CHO-M1 cells, IP1 TR-FRET (IP-One), carbachol + lithium; series mostly up to 59.4 µM; further: nearly all actives have a fitted effect of over 50% in size
Summary of the method: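 Test compounds were applied to CHO-M1 cells previously cultured for 16–30 h at 2000 per well. A small lithium amount accompanied them; after 30 min at 37C, IP1 was quantified by TR-FRET.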
Potency means the concentration at half of the fitted maximal effect.

SMILES	Potency
CS(=O)(=O)c1ccc2nc(NC(=O)c3ccco3)sc2c1	inactive
O=C(Cn1cnc2c(cnn2-c2ccc(F)cc2)c1=O)NCc1ccco1	inactive
COc1ccc(-c2cn(-c3ccc(OC)cc3)c(=S)[nH]2)cc1	inconclusive: 12.6 µM [inhibitor, single point]
CC[C@H](NC(C)C)[C@H](O)c1ccc(O)c(O)c1	inactive
C=CCn1c(CCCNC(=O)c2ccccc2OC)nc2ccccc21	inconclusive: 5.01 µM [inhibitor, single point]
Cn1ccnc1Sc1nc2ccccc2nc1NS(=O)(=O)c1ccccc1	inconclusive: 14.1 µM [inhibitor, single point]
Nc1c(C(=O)Nc2ccccc2)sc2nc(-c3ccco3)ccc12	inconclusive: 10 µM [inhibitor, partial curve]
COc1ccc(C(CNC(=O)Cc2ccccc2F)N2CCCCC2)cc1 (configuration not stated)	inactive
COc1ccc(Sc2nnc(-c3ccccc3)cc2C#N)cc1	inconclusive: 11.2 µM [inhibitor, single point]
CSc1nc2sc3c(c2c2nnnn12)CCC3	inconclusive: 12.6 µM [inhibitor, partial curve]
Cc1ccc(/C(O)=C2/C(=O)C(=O)OC2c2ccc(Cl)cc2)cc1 (configuration not stated)	inconclusive: 12.6 µM [inhibitor, single point]
COc1ccccc1CNc1ncnc2cc(Cl)ccc12	inconclusive: 28.2 µM [inhibitor, single point]
CC1CCc2cc(F)cc3c(O)c(C(=O)NCc4ccco4)c(=O)n1c23 (configuration not stated)	inconclusive: 11.2 µM [inhibitor, single point]
CC(C)CCN1CC(O)=C(c2nc(-c3ccc(Cl)cc3)cs2)C1=N	inconclusive: 28.2 µM [inhibitor, single point]
Cc1c(/C(O)=C2/C(=O)C(=O)N(Cc3cccnc3)C2c2cccs2)cnn1-c1ccccc1 (configuration not stated)	active: 7.08 µM
Cc1nc(-c2cnn(-c3ccccc3)c2)c2cc(C)oc2n1	inactive
COc1cc(/C=C2\SC(=S)N(CC(=O)Nc3ccccn3)C2=O)cc(OC)c1OC	inactive
Cc1cc2nc(-c3cccc(NC(=O)c4ccc(Br)o4)c3C)oc2cc1C	inconclusive: 28.2 µM [inhibitor, single point]
COc1cc(/C=N/N2C(=O)C3C4C=CC(CC4)C3C2=O)ccc1O (configuration not stated)	inactive
O=C(CCNS(=O)(=O)c1cccs1)NC1CCN(Cc2ccccc2)CC1	inactive
COC(=O)c1ccc2c(=O)n(CCCCCC(=O)NC(C)C)c(=O)[nH]c2c1	inconclusive: 2.51 µM [inhibitor, partial curve]
CCN(CC)CCN(Cc1cc2cc(C)ccc2[nH]c1=O)C(=O)Nc1ccccc1OC	inactive
COc1cccc(-c2ccc(C#N)c(SCC(=O)NCc3ccco3)n2)c1	inconclusive: 11.2 µM [inhibitor, single point]
O=C(c1cccs1)N(Cc1nc2sc3c(c2c(=O)[nH]1)CCCC3)C1CCCC1	inactive

SMILES	Potency
Cc1ccc(-n2ncc3c(=O)n(CC(=O)NC4CCCCC4)cnc32)cc1	inconclusive: 28.2 µM [inhibitor, single point]
O=C(c1ccco1)N1CCN=C1SCc1c(F)cccc1Cl	inconclusive: 5.01 µM [inhibitor, full curve]
COc1ccc(C(=O)Cc2ccc3c(c2)OCO3)c(O)c1	inconclusive: 14.1 µM [inhibitor, single point]
O=C1C(=O)N(Cc2cccnc2)C(c2ccccn2)/C1=C(/O)c1ccc(F)cc1 (configuration not stated)	inactive
O=C(Cc1ccc(-n2c(=O)c3sccc3n(CC(=O)Nc3ccccc3F)c2=O)cc1)NCc1ccco1	inconclusive: 12.6 µM [inhibitor, single point]
Cc1cc(CNC(=O)COc2ccccc2)c2ccccc2n1	inconclusive: 5.01 µM [inhibitor, single point]
CCOC(=O)Nc1nc(-c2ccccc2)c(C(=O)c2ccccc2)s1	inconclusive: 14.1 µM [inhibitor, single point]
CCOc1ccc(Br)cc1C(=O)Nc1ccc(C(=O)NCC(C)C)cc1	active: 10 µM
COc1cccc(NC(=O)c2ccc(-n3cccn3)nc2)c1	inconclusive: 28.2 µM [inhibitor, single point]
O=C(c1cccc(F)c1)N1CCN(c2ccc([N+](=O)[O-])c(N3CCOCC3)c2)CC1	inactive
CCOC(=O)CC(NC(=O)Cn1nnc(-c2ccccc2F)n1)c1ccccc1Cl (configuration not stated)	inactive
CN(C)S(=O)(=O)NCCNC(=O)c1cc(OCC(F)(F)F)ccc1OCC(F)(F)F	inconclusive: 31.6 µM [inhibitor, single point]
O=C(Cn1cnnn1)OCC(=O)c1ccc(Cl)s1	inconclusive: 31.6 µM [inhibitor, single point]
COc1ccc(C(=O)Nc2ccc3c(c2)nc2n3CCSC2)cc1	inconclusive: 12.6 µM [inhibitor, partial curve]
Cc1cccc(CNc2cc(-c3c(C)noc3C)ncn2)c1	inconclusive: 14.1 µM [inhibitor, single point]
C=CCOc1ccc(/C(O)=C2/C(=O)C(=O)N(CCCn3ccnc3)C2c2cccs2)cc1 (configuration not stated)	inconclusive: 10 µM [inhibitor, partial curve]
CCc1cc2ccc(OC)cc2nc1SCC(=O)Nc1cc(C)on1	inconclusive: 28.2 µM [inhibitor, single point]
CCOC(=O)C1=C(Nc2ccccc2)CC(C)(O)C(C(=O)OCC)C1c1ccc(Cl)cc1 (configuration not stated)	inactive
COc1ccc(CCc2nnc(CCC(=O)NCc3cnc4ccccn34)o2)cc1	inactive
CN(C)c1ccc(N2CC(C)(C)C2=O)cc1	inconclusive: 2.82 µM [inhibitor, single point]
O=C1c2cccc3cccc(c23)C(=O)N1Cc1ccccc1	inconclusive: 28.2 µM [inhibitor, single point]
CCOc1ccc(C2/C(=C(/O)c3ccc(OC)cc3)C(=O)C(=O)N2c2cc(C)on2)cc1OC (configuration not stated)	inconclusive: 0.316 µM [inhibitor, full curve, poor fit]
O=C1CCc2cc(S(=O)(=O)N3CCC(C(=O)NC4CCCCCCC4)CC3)ccc2N1	inconclusive: 22.4 µM [inhibitor, single point]
COc1ccccc1CNC(=O)COC(=O)c1ccc(S(=O)(=O)N2CCCC2)cc1	inconclusive: 11.2 µM [inhibitor, single point]

SMILES	Potency
O=C(Cn1cnc2c(cnn2-c2ccc(Cl)cc2)c1=O)NCCc1ccccc1	active: 12.6 µM
N#Cc1cc(C#N)c(N2CCN(c3ccccn3)CC2)nc1N	active: 28.2 µM
O=C(NCc1ccc2c(c1)OCO2)c1cc(-c2ccccc2)on1	inconclusive: 11.2 µM [inhibitor, single point]
COc1cccc(CC2(CO)CCCN(Cc3c(C)cc(C)cc3-n3cccn3)C2)c1 (configuration not stated)	inactive
CCOc1ccc(NC(=O)Cn2nnc3c(cnn3-c3ccc(F)cc3)c2=O)cc1	inactive
COc1ccc2sc3c(=O)[nH]c4ccccc4c3c2c1	inconclusive: 22.4 µM [inhibitor, single point]
O=C(NCc1cccs1)C1CCCN(S(=O)(=O)c2cccs2)C1 (configuration not stated)	inactive
CC(C)Cn1c(SCC(=O)NC(=O)Nc2ccc3c(c2)OCCO3)nc2ccccc2c1=O	inconclusive: 28.2 µM [inhibitor, single point]
O=C(c1ccc2c(c1)OCCCO2)c1cccs1	inactive
O=C1c2ccccc2C(=O)N1Cc1nn2c(-c3ccc(Cl)cc3)nnc2s1	active: 11.2 µM
COC(=O)c1c(C)[nH]c(C)c1-c1ccc([N+](=O)[O-])cc1	inconclusive: 3.16 µM [inhibitor, full curve, poor fit]
O=C(COC(=O)C1(c2ccc(F)cc2)CCCC1)NC1CC1	inactive
N#Cc1c(-c2ccc(Cl)cc2)nc2n(c1=O)CCCS2	inconclusive: 28.2 µM [inhibitor, single point]
CCCOP(=O)(OCCC)c1nc(-c2ccccc2)oc1NCc1ccccc1	inactive
C#CCSc1nc(-c2cccs2)ccc1C#N	inactive
O=C(N/N=C/c1ccc2c(c1)OCO2)/C(=C/c1ccc2c(c1)OCO2)NC(=O)c1ccccc1	inactive
CCN(CC)S(=O)(=O)c1ccc(C(=O)NCc2ccc3c(c2)cc(C)n3C)cc1	inconclusive: 10 µM [inhibitor, single point]
O=c1[nH]c(-c2ccc(Cl)cc2)nc2c1cnn2-c1ccccc1	inconclusive: 22.4 µM [inhibitor, single point]
COc1cc(/C=C(/NC(=O)c2ccccc2)C(=O)Nc2ccccc2)c([N+](=O)[O-])cc1OC	inconclusive: 5.01 µM [inhibitor, single point]
COc1ccc(C2CC(=O)N3CN(c4ccc(C)c(Cl)c4)CSC3=C2C#N)cc1OC (configuration not stated)	inconclusive: 14.1 µM [inhibitor, single point]
NC(=O)c1nc(-c2cccs2)nc2c1[nH]c(=O)n2-c1ccc(F)cc1	inconclusive: 14.1 µM [inhibitor, single point]
CC1(C)CN(c2ccc(CC#N)cc2)C1=O	inconclusive: 5.01 µM [inhibitor, single point]
Cc1cc(NC(=O)CC(C)(C)C)nc2c1c(=O)oc1ccccc12	inconclusive: 28.2 µM [inhibitor, single point]
COc1ccc(C(C)=O)cc1COC(=O)c1ccc(OCc2c(C)noc2C)cc1	inconclusive: 28.2 µM [inhibitor, single point]
